This assay concerns Swiss mice, Sarcoma 180 sc, mean tumor weight T/C. As to the kind of experiment: NCI In Vivo Anticancer Drug Screen. Data for tumor model Sarcoma 180 (subcutaneous) in Swiss mice. Conditions: endpoint: mean tumor weight, higher = larger tumour. The protocol:
The antitumor activity of compounds was measured in mice bearing transplantable tumors. Survival or tumor size were measured and the results are expressed as the measurement made in the treated group (T) divided by the measurement made in the vehicle treated control group (C). The tumor model used in this assay is Sarcoma 180 (subcutaneous) in Swiss mice

Setting [1] is: dose: 250.0 mg/kg/injection, schedule: Q01DX007 (ip), vehicle: saline.
[2] abbreviates: dose: 500.0 mg/kg/injection, schedule: Q01DX007 (ip), vehicle: saline.
Where [3] appears, read: dose: 125.0 mg/kg/injection, schedule: Q01DX007 (ip), vehicle: saline.
[4] abbreviates: dose: 125.0 mg/kg/injection, schedule: Q01DX007 (ip), vehicle: other.

Not every entry of the source has a single result; some have several. This is not the full list of results. The source may hold further records. Values that stand side by side repeat one measurement across runs, samples, wells, individuals or studies.

As for `CC(=O)[C@@]1(O)CC[C@H]2[C@@H]3C[C@H](C)C4=CC(=O)C=C[C@]4(C)[C@@]3(F)[C@@H](O)C[C@@]21C`, the T/C is 43 % of control and 71 % of control (dose: 55.0 mg/kg/injection, schedule: Q01DX007 (sc), vehicle: steriod suspending solution); 36 % of control and 68 % of control (dose: 93.75 mg/kg/injection, schedule: Q#A X014 (sc), vehicle: steriod suspending solution); 17 % of control and 61 % of control (dose: 200.0 mg/kg/injection, schedule: Q01DX007 (sc), vehicle: steriod suspending solution). `CC(=O)OCC(=O)[C@@]1(O)CC[C@H]2[C@@H]3C[C@H](C)C4=CC(=O)C=C[C@]4(C)[C@H]3[C@@H](O)C[C@@]21C`: the T/C by setting is: (dose: 5.0 mg/kg/injection, schedule: Q01DX007 (sc), vehicle: steriod suspending solution) 73 % of control and 118 % of control; (dose: 17.0 mg/kg/injection, schedule: Q01DX007 (sc), vehicle: steriod suspending solution) 35 % of control and 95 % of control. Turning to `O=C(Nc1ccc2cc(S(=O)(=O)O)ccc2c1)c1ccc(N=Nc2c(S(=O)(=O)O)cc3cc(S(=O)(=O)O)cc(NC(=O)c4ccccc4)c3c2O)cc1`, the T/C by setting is: (dose: 27.5 mg/kg/injection, schedule: Q#A X014 (ip), vehicle: methylcellulose (MC)) 52 % of control, 73 % of control, 98 % of control; (dose: 62.5 mg/kg/injection, schedule: Q#A X014 (ip), vehicle: methylcellulose (MC)) 33 % of control, 60 % of control, 92 % of control.

For the compound `CC(C)C(=O)OCC1OC(n2cnc3c(=S)nc(N)[nH]c32)C(OC(=O)C(C)C)C1OC(=O)C(C)C` (centres undefined), where the note is “dose: 14.0 mg/kg/injection, schedule: Q01DX007 (ip), vehicle: carboxymethylcellulose (CMC)”, the T/C is 18 % of control and 46 % of control. With `CC/C(=C(/CC)c1ccc(O)cc1)c1ccc(O)cc1`, the T/C (dose: 88.5 mg/kg/injection, schedule: Q01DX007 (sc), vehicle: steriod suspending solution) is 51 % of control and 90 % of control.

On to `CC(C)(C#N)C#N`, for which the T/C is, setting by setting: under setting [1], 24 % of control, 31 % of control, 74 % of control; under setting [2], 11 % of control and 56 % of control.

Take `CN(C)[C@@H]1C(=O)C(C(=O)NCNC2(C(=O)O)CCCC2)=C(O)[C@@]2(O)C(=O)C3=C(O)c4c(O)cccc4[C@@](C)(O)[C@H]3C[C@@H]12`: the T/C by setting is: under setting [3], 53 % of control and 104 % of control; under setting [1], 35 % of control and 66 % of control. Take `OC(CBr)C(O)C(O)C(O)CBr` (centres undefined): for the setting “dose: 200.0 mg/kg/injection, schedule: Q01DX007 (ip), vehicle: saline”, the T/C was 59 % of control and 86 % of control. On to `CO[C@@]12[C@H](COC(N)=O)C3=C(C(=O)C(C)=C(N)C3=O)N1C[C@@H]1N[C@@H]12`, for which, for the setting “dose: 1.0 mg/kg/injection, schedule: Q#A X014 (ip), vehicle: carboxymethylcellulose (CMC)”, the T/C is 37 % of control and 65 % of control. Consider `Clc1ccccc1/C=C/C=C1c2ccccc2-c2ccccc21`, for which the T/C (dose: 750.0 mg/kg/injection, schedule: Q01DX007 (ip), vehicle: saline) was 47 % of control and 75 % of control. In the case of `Nc1ccc(C(=O)O)c(O)c1`, the T/C is, setting by setting: (dose: 191.75 mg/kg/injection, schedule: Q01DX007 (ip), vehicle: carboxymethylcellulose (CMC)) 75 % of control and 105 % of control; (dose: 383.5 mg/kg/injection, schedule: Q01DX007 (ip), vehicle: carboxymethylcellulose (CMC)) 73 % of control, 84 % of control, 111 % of control. Take `CC(C)(S)C(N)C(=O)O` (centres undefined): where the note is “dose: 250.0 mg/kg/injection, schedule: Q01DX007 (oral), vehicle: saline”, the T/C was 122 % of control and 159 % of control.

For the compound `COC1N(C2CC(O)C(CO)O2)C(=O)NC(=O)C1(F)Br` (centres undefined), the T/C is 48 % of control and 90 % of control (dose: 33.0 mg/kg/injection, schedule: Q01DX007 (ip), vehicle: saline); 37 % of control and 67 % of control (dose: 50.0 mg/kg/injection, schedule: Q01DX007 (ip), vehicle: saline). In the case of `O=C(O)C(=O)O.O=C([O-])C(=O)O.O=C([O-])C(=O)O.O=C([O-])C(=O)[O-].[K+].[U]`, the T/C is recorded as 44 % of control, 64 % of control, 98 % of control (dose: 3.5 mg/kg/injection, schedule: Q#A X014 (ip), vehicle: saline) and 51 % of control, 74 % of control, 80 % of control (dose: 5.0 mg/kg/injection, schedule: Q#A X014 (ip), vehicle: saline). Turning to `Clc1[nH]nc2ccccc12`, the T/C runs as follows: (dose: 63.0 mg/kg/injection, schedule: Q#A X014 (ip), vehicle: methylcellulose (MC)) 45 % of control, 73 % of control, 91 % of control; (dose: 95.0 mg/kg/injection, schedule: Q#A X014 (ip), vehicle: methylcellulose (MC)) 50 % of control, 63 % of control, 78 % of control; (dose: 142.5 mg/kg/injection, schedule: Q#A X014 (ip), vehicle: methylcellulose (MC)) 39 % of control, 58 % of control, 68 % of control. Take `O=C1NC(=O)C2(CCCc3ccc(N(CCCl)CCCl)cc32)N1` (centres undefined): the T/C (dose: 55.0 mg/kg/injection, schedule: Q01DX007 (ip), vehicle: other) was 43 % of control, 48 % of control, 82 % of control; the T/C (dose: 83.0 mg/kg/injection, schedule: Q01DX007 (ip), vehicle: other) is 29 % of control, 67 % of control, 92 % of control; the T/C (dose: 83.0 mg/kg/injection, schedule: Q01DX007 (ip), vehicle: saline) was 28 % of control and 62 % of control; the T/C under setting [4] was 32 % of control and 64 % of control. `CC(=O)OCC(=O)[C@@]1(O)CC[C@H]2[C@@H]3C[C@H](C)C4=CC(=O)C=C[C@]4(C)[C@@]3(F)[C@@H](O)C[C@@]21C`: the T/C (dose: 82.0 mg/kg/injection, schedule: Q01DX007 (sc), vehicle: steriod suspending solution) is 12 % of control and 61 % of control. On to `COC1C(OC(=O)/C=C/C=C/C=C/C=C/C(=O)O)CCC2(CO2)C1C1(C)OC1CC=C(C)C` (centres undefined), for which the T/C was 30 % of control, 54 % of control, 65 % of control (dose: 50.0 mg/kg/injection, schedule: Q01DX007 (ip), vehicle: carboxymethylcellulose (CMC)); 25 % of control and 52 % of control (dose: 100.0 mg/kg/injection, schedule: Q01DX007 (ip), vehicle: carboxymethylcellulose (CMC)). As for `CC1CN1P(=O)(Oc1ccccc1)N1CC1C` (centres undefined), the T/C (dose: 41.5 mg/kg/injection, schedule: Q#A X014 (ip), vehicle: saline) is recorded as 29 % of control, 48 % of control, 60 % of control. With `COCCOC1=C(N2CC2)C(=O)C(OCCOC)=C(N2CC2)C1=O`, the T/C reads like this: (dose: 4.0 mg/kg/injection, schedule: Q01DX001 (ip), vehicle: saline) 43 % of control and 73 % of control; (dose: 8.0 mg/kg/injection, schedule: Q01DX001 (ip), vehicle: saline) 7 % of control and 71 % of control. As for `CCNc1nncs1`, for the setting “dose: 65.5 mg/kg/injection, schedule: Q01DX007 (ip), vehicle: carboxymethylcellulose (CMC)”, the T/C is 86 % of control and 112 % of control. On to `OCC(F)(F)C(F)(F)C(F)(F)F`, for which the T/C is, setting by setting: under setting [3], 79 % of control and 109 % of control; under setting [2], 59 % of control and 109 % of control.

On to `O=C(Nc1ccc([N+](=O)[O-])cc1)Nc1ccc([N+](=O)[O-])cc1` (tested in a mixture with another compound), for which, for the setting “dose: 280.0 mg/kg/injection, schedule: Q#A X014 (ip), vehicle: methylcellulose (MC)”, the T/C is given as 32 % of control, 69 % of control, 73 % of control. As for `CNC(C)=O`, the T/C (dose: 1000.0 mg/kg/injection, schedule: Q01DX007 (ip), vehicle: carboxymethylcellulose (CMC)) is 36 % of control and 73 % of control. Consider `CCOC(=O)C1=C(C)NC(C)=C(C(=O)OCC)C1C`, for which the T/C reads like this: (dose: 62.5 mg/kg/injection, schedule: Q01DX007 (ip), vehicle: other) 22 % of control and 53 % of control; under setting [4], 22 % of control, 66 % of control, 74 % of control; (dose: 250.0 mg/kg/injection, schedule: Q01DX007 (ip), vehicle: other) 9 % of control, 42 % of control, 53 % of control. As for `CC1CN1P(=O)(N1CCCC1)N1CC1C` (centres undefined), the T/C is 51 % of control and 89 % of control (dose: 7.0 mg/kg/injection, schedule: Q#A X014 (ip), vehicle: saline); 37 % of control and 69 % of control (dose: 10.5 mg/kg/injection, schedule: Q#A X014 (ip), vehicle: saline). Consider `O=C(O)C(=O)O.[U]`, for which the T/C (dose: 12.0 mg/kg/injection, schedule: Q01DX007 (ip), vehicle: saline) is 35 % of control and 63 % of control. For the compound `C/C=C1\CN(C)[C@H]2Cc3c([nH]c4ccccc34)[C@@H](c3cc4[nH]c5c(c4cc3OC)CCN3C[C@H]4C[C@H](CC)[C@H]3[C@@]5(C(=O)OC)C4)C[C@H]1C2C(=O)OC` (some centres undefined), the T/C (dose: 60.0 mg/kg/injection, schedule: Q01DX007 (ip), vehicle: water) was 15 % of control, 19 % of control, 41 % of control. `O=[N+]([O-])c1ccc2c(N=Nc3c(O)ccc4ccccc34)c(O)cc(S(=O)(=O)O)c2c1`: where the note is “dose: 220.0 mg/kg/injection, schedule: Q01DX007 (ip), vehicle: saline”, the T/C is listed as 48 % of control, 55 % of control, 160 % of control.

The values above are taken from PubChem BioAssay AID342 (DTP/NCI, 2004).
